Experimental data: patent publication US20250144229A1, “CONJUGATE OF ANTIBODY-ERIBULIN OR DERIVATIVE THEREOF, INTERMEDIATE THEREOF, PREPARATION METHOD THEREFOR, PHARMACEUTICAL COMPOSITION THEREOF AND USE THEREOF” (MEDLINK THERAPEUTICS (SUZHOU) CO., LTD., priority 2022, published 2025)

Target: B7H3 protein on human tumor cells (MCF-7, A549, PC-3, HT29) (human), Q5ZPR3
Test: cell-based or functional assay

Chain of B7H3 protein on human tumor cells (MCF-7, A549, PC-3, HT29) (human), Q5ZPR3 (Q5ZPR3 29-534): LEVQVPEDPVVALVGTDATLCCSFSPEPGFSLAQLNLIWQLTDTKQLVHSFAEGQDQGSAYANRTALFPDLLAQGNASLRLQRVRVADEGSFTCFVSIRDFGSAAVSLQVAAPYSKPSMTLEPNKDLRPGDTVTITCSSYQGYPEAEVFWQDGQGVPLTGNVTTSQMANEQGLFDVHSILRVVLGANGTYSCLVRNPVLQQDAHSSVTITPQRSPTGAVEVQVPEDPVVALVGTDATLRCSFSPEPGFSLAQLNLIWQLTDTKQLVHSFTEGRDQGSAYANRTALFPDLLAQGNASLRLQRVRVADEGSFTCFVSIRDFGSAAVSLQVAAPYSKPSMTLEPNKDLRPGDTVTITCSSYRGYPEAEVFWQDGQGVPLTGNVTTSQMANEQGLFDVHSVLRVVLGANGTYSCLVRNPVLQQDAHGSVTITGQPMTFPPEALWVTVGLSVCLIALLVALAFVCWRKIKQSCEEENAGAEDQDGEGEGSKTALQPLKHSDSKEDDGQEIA

B1: B7H3-ADC-01 (DAR8), coupling product of DL-001 and B7H3 antibody 2E3-02, P0DOX5 1-449 (protein)
heavy: EVQLLESGGGLVQPGGSLRLSCAASGFTFSSYAMNWVRQAPGKGLEWVSGISGSGGSTYYADSVQGRFTISRDNSKNTLYLQMNSLRAEDTAVYYCAKARSGYDYFFDYWGQGTLVTVSS[sequence of human IgG1 constant region omitted]
light: EIVLTQSPGTLSLSPGERATLSCRASQRISSSFLAWYQQKPGQAPSLLIYGASSRATGIPDRFSGSGSGTDFTLTISSLEPEDFAVFYCQQYSNSPLTFGGGTKVEIKRTVAAPSVFIFPPSDEQLKSGTASVVCLLNNFYPREAKVQWKVDNALQSGNSQESVTEQDSKDSTYSLSSTLTLSKADYEKHKVYACEVTHQGLSSPVTKSFNRGEC
modifications: here or on the partner: one DL-001 (eribulin drug-linker) payload molecule per light chain, attached via the S atom of a cysteine after TCEP reduction; position not stated; three DL-001 (eribulin drug-linker) payload molecules per heavy chain, attached via S atoms of cysteines after TCEP reduction; positions not given
IC50, inhibitory activity on cell viability in vitro (CCK8, 7 days), A549 cells: 0.23 nM
IC50, inhibitory activity on cell viability in vitro (CCK8, 7 days), HT29 cells: 0.039 nM
